Columns and labels:
biotinylated hu-PDL2 [1] = molecular target: T1, biotinylated hu-PDL2 (human, UniProt Q9BQ51 20-220, limits assumed, biotinylated); experiment: ELISA: varying concentrations of construct coated, fixed biotinylated hu-PDL2 (500 ng/mL)
T1 construct: Soluble biotinylated protein detected with streptavidin-HRP
T1 sequence (looked up): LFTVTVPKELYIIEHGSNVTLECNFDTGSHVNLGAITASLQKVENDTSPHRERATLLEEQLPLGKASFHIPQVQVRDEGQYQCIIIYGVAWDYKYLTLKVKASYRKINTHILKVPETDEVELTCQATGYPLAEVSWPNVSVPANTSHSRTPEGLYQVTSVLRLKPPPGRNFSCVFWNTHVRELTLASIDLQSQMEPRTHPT

biotinylated hu-PDL2 [2] = molecular target: T1, biotinylated hu-PDL2; experiment: ELISA: construct coated at 1 µg/mL, varying biotinylated hu-PDL2, streptavidin-HRP

- EC50 (biotinylated hu-PDL2 [1]): 780 nM
- EC50 (biotinylated hu-PDL2 [2]): 54 nM
B1: anti-IL-23-PD1ecd (anti-IL-23 antibody guselkumab with PD1 ECD A132I fused to the C terminus of the heavy chain via (GGGGS)3) (other)
heavy: EVQLVQSGAEVKKPGESLKISCKGSGYSFSNYWIGWVRQMPGKGLEWMGIIDPSNSYTRYSPSFQGQVTISADKSISTAYLQWSSLKASDTAMYYCARWYYKPFDVWGQGTLVTVSS[here human IgG1 constant region with changes without letters]GGGGSGGGGSGGGGSPGWF[here about 150 residues without letters]
light: QSVLTQPPSVSGAPGQRVTISCTGSSSNIGSGYDVHWYQQLPGTAPKLLIYGNSKRPSGVPDRFSGSKSGTSASLAITGLQSEDEADYYCASWTDGLSLVVFGGGTKLTVLGQPKAAPSVTLFPPSSEELQANKATLVCLISDFYPGAVTVAWKADSSPVKAGVETTTPSKQSNNKYAASSYLSLTPEQWKSHRSYSCQVTHEGSTVEKTVAPTECS
notes: Antibody-receptor ECD fusion; also called a-IL-23-PD1 (A123I); anti-IL-23-PD1 (A123I)

Reference: patent US20240425579A1 (Y TRAP, published 2024)
